Our source for the z-score values is PubChem BioAssay AID1224903 (Bradner/Qi Labs at DFCI, 2016).

The other results are listed elsewhere or left out. Further columns of the screen follow, without active or inactive calls. The list favours compounds with an active or inconclusive main result.

The assay has as its target Chromobox protein homolog 7 (Homo sapiens) (UniProt O95931). As to the kind of experiment: blockers of CBX7 binding to H3K27me3 peptide – biochemical, AlphaScreen, primary screen (AID 1224903). The note with it: AlphaScreen His6-CBX7 / biotin-H3K27me3 peptide binding; measured here: z-score of CBX7 signal; stronger effect = lower value.
Sequence of UniProt O95931 (O95931 whole entry, looked up): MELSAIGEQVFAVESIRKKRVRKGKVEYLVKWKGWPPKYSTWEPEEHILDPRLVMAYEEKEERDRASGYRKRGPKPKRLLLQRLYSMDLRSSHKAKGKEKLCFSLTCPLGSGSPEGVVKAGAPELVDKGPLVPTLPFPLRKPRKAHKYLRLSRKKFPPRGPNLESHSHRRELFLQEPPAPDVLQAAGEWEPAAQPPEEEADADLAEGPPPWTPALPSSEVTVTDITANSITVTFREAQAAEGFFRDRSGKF
`Cc1[nH]c2ccc(OCc3ccccc3)cc2c1CCNC(=O)c1ccnn1C` displayed a z-score of -1.05.
`COc1ccccc1Nc1nc(-c2sc(N)nc2C)cs1` showed a z-score of -12.4.
For `CSCC[C@@H](C(=O)Nc1cccc(F)c1)N1Cc2ccccc2C1=O`, the z-score is -1.43.
`COCc1nnc(NC(=O)c2ccc(S(=O)(=O)N(C)C3CCCCC3)cc2)o1` had a z-score of -1.47.
On to `COc1ccc(-c2nnc(NC(=O)c3ccc(S(=O)(=O)N(C)Cc4ccccc4)cc3)o2)cc1`, for which the z-score was -16.7.
On to `COc1ccc(NCC(O)Cn2c3ccccc3c3ccccc32)cc1` (configuration not stated), for which the z-score is -16.2.
The result for `CCOc1ccccc1CN(CCc1ccc2c(c1)OCO2)Cc1ccccn1` reads -1.62.
For `COC(=O)c1c[nH]n2c(NC3CCCCCC3)c(-c3cccc(OC)c3)nc12`, the z-score was -9.96.
With `O=C(Nc1nnc(C2CC2)o1)c1ccc(S(=O)(=O)N2CCCC2)cc1`, the z-score was -15.5.
As for `O=S(=O)(Nc1nc2ccccc2nc1N1CCc2ccccc2C1)c1ccc(Br)cc1`, the figure is -5.92; as for `COc1ccc(N2CCN(c3oc(COc4cccc(C)c4)nc3C#N)CC2)cc1`, -14.4.
The compound `CCOC(=O)c1cnc2ccc(OCC)cc2c1Nc1ccc2c(c1)OCO2` displayed a z-score of -0.65.
In turn, `CCN(CCCNC(=O)CC(C(=O)N1CCc2ccccc21)n1ccnc1)c1cccc(C)c1` (configuration not stated) yielded a z-score of -19.3.
`COC(=O)c1c[nH]n2c(NC3CCCC3)c(-c3ccc(OC)cc3)nc12` yielded a z-score of -0.999.
Regarding `COc1ccc(-c2nnc(NC(=O)c3ccc(S(=O)(=O)N(C)C)cc3)o2)cc1`, the z-score is -16.2.
Turning to `CCN1CCCc2cc(CN(CCN3CCOCC3)C(=O)Nc3ccc(C)c(C)c3)ccc21`, the z-score is -15.4.
Compound `CC(C)c1ccc(Nc2c(-c3ccccn3)nc3ccccn23)cc1` had a z-score of -31.8.
In turn, `Cc1ccc2nc(-c3ccccn3)c(Nc3ccccc3C)n2c1` yielded a z-score of -21.4.
In turn, `Cc1ccccc1OCc1nc(C#N)c(N2CCCCCC2)o1` displayed a z-score of -3.29.
`CCOc1ccc(-c2nnc(Nc3cccc(O)c3)c3ccccc23)cc1`: the z-score is -2.37.
Take `O=C(Nc1ccc2oc(-c3ccncc3)nc2c1)c1ccc(-c2ccc(F)cc2)o1`: the z-score is -4.94.
The result for `CCCCn1cnc2cc(NCc3ccccc3OCC)ccc21` reads -23.3; that for `CCCn1c(=O)c(C(=O)NC(C)c2ccccc2)c(O)c2ccccc21` (configuration not stated), -4.53; that for `O=C(Nc1nc(-c2ccccn2)cs1)c1ccc(S(=O)(=O)N2CCCCC2)cc1`, -18.2.
As for `CCc1nnc(NC(=O)c2ccc(S(=O)(=O)N(C)C3CCCCC3)cc2)o1`, the z-score is -10.3.
In turn, `CCC(=C(c1ccc(OC)cc1)c1ccc(OC)cc1)c1cn(CCCN(C)C)c2ccccc12` displayed a z-score of -4.56.
In the case of `CCCN1C(=O)C(O)(CC(=O)c2ccc(C(C)C)cc2)c2cc(Br)ccc21` (configuration not stated), the z-score is -0.972.
`c1cc2c(cc1Nc1nc3nonc3nc1Nc1ccc3c(c1)OCO3)OCO2` had a z-score of -7.98.
`Cc1ccc(Cn2cc(CCC(=O)NCc3cccnc3)c3ccccc32)cc1` yielded a z-score of -0.736.
The compound `CC1CCc2cc(F)ccc2N1C(=O)CCCN1C(=O)c2cccnc2C1=O` (configuration not stated) displayed a z-score of -5.1.
In the case of `Clc1ccc(-c2csc(Nc3ccc(Br)cc3)n2)cc1Cl`, the z-score was -9.3.
As to `COc1ccc(Cl)cc1S(=O)(=O)NCCc1c(C)[nH]c2ccc(C)cc12`, the z-score is -0.52.
Take `O=C(CC(Sc1cccc2cccnc12)c1ccc(OC(F)F)cc1)c1ccco1` (configuration not stated): the z-score is -3.92.
Regarding `Cc1ccc2c(c1)Oc1cc([N+](=O)[O-])cc(Oc3cccc(Cl)c3Cl)c1C(=O)N2`, the z-score is -14.6.
`C=CCc1cc(C)ccc1OCC(O)CN1CCN(c2ccccc2)CC1` (configuration not stated) yielded a z-score of -1.26.
With `CC1CCN(c2oc(-c3ccccc3)nc2C#N)CC1`, the z-score is -0.694.
Take `COc1cccc(-c2nc(-c3ccccc3)c(-c3cc([N+](=O)[O-])ccc3C)[nH]2)c1`: the z-score was -0.527.
With `CCN(CC)c1ccc(NC2c3ccccc3C(=O)N2c2ccc(Cl)cn2)c(C)c1` (configuration not stated), the z-score is -12.
The result for `COc1ccc(OC)c(NCC(O)Cn2c3ccccc3c3ccccc32)c1` (configuration not stated) reads -4.38.
As for `Fc1ccc(-c2[nH]c(-c3c[nH]c4ccc(Br)cc34)nc2-c2ccccc2)cc1`, the figure is -0.542; as for `Cc1ccc(Nc2nc(-c3c(C)nc4cc(C)ccn34)cs2)c(C)c1`, -0.657.
On to `CC(=O)Nc1ccc(Nc2nc(-c3ccccn3)cs2)cc1`, for which the z-score is -18.6.
`CCOC(=O)c1cnc2c(OC)cccc2c1N1CCC(Cc2ccccc2)CC1` displayed a z-score of -0.65.
As for `O=C1Nc2ccccc2SC(c2ccccc2)C1O` (configuration not stated), the z-score is -10.4.
`CC(C)Cc1ccc(-c2csc(Nc3ccc(Oc4ccccc4)cc3)n2)cc1` had a z-score of -8.87.
`O=C(Nc1nnc(-c2ccc(F)cc2)o1)c1ccc(S(=O)(=O)N2CCCC2)cc1`: the z-score is -4.34.
Consider `COc1ccc(-c2csc(Nc3ccc(C)c(Cl)c3)n2)cc1F`, for which the z-score was -10.5.
As for `COc1ccc(OC)c(NC(=O)CSc2nccn2-c2ccc(F)cc2)c1`, the z-score is -1.83.
For the compound `COc1ccc(-n2c(-c3ccc(C)cc3)cc3c2CC(C)(C)CC3=O)c(OC)c1`, the z-score is -7.22.
As to `Cc1cc(NC(=O)CSc2nnc(CNC(=O)c3c(F)cccc3Cl)o2)no1`, the z-score is -15.9.
`O=C(Nc1ccccn1)c1nc[nH]c1C(=O)O` showed a z-score of -7.96.
Compound `COc1ccc(NC(=O)CSc2nccn2-c2ccc(Cl)cc2)c(OC)c1` returned a z-score of -1.81.
As for `COc1cc(-c2nc(-c3ccccc3)c(-c3cccs3)[nH]2)cc(OC)c1O`, the figure is -1.05; as for `O=C(CCc1nc2sc3c(c2c(=O)[nH]1)CCCC3)NCc1ccccn1`, -3.09.
As for `O=C(Nc1ccc(Br)cc1)c1nc[nH]c1C(=O)O`, the figure is -18.2.
`Cc1ccc(C(NC(=O)CCc2ccccc2)c2ccc3cccnc3c2O)cc1` (configuration not stated) yielded a z-score of -3.27.
The compound `O=C(CCc1cn(Cc2ccccc2)c2ccccc12)NCc1ccccc1Cl` displayed a z-score of -8.83.
The result for `CCc1ccc(C(=O)CC2(O)C(=O)N(Cc3ccc(Cl)cc3)c3ccccc32)cc1` (configuration not stated) reads -7.31.
`CC(C)(C)c1ccc2c(c1)N(CC(=O)NCCc1ccccc1)C(=O)CO2` showed a z-score of -10.2.
`COc1cc(S(=O)(=O)NCCc2c(C)[nH]c3ccc(C)cc23)c(C)cc1C` registered a z-score of -0.651.
As for `CCn1c2c(c3cc(C4CCCCC4)ccc31)CCCC2O` (configuration not stated), the z-score is -1.48.
Compound `COc1cc(C)c(S(=O)(=O)NCCc2c(C)[nH]c3ccc(C)cc23)cc1C` yielded a z-score of -0.621.
`Cc1ccn2c(Nc3ccc(C(C)C)cc3)c(-c3ccccn3)nc2c1` had a z-score of -21.4.
The result for `Cc1ccc2nsnc2c1NC(=O)c1ncn[nH]1` reads -5.93.
With `Cc1nnc(NC(=O)c2ccc(S(=O)(=O)N3CC(C)OC(C)C3)cc2)o1` (configuration not stated), the z-score was -1.32.
As for `CCc1nc2ccccc2c(NC(=O)CN2CCN(C)CC2)c1C`, the figure is -1.64.
`O=C(O)c1c[nH]c2ccc(S(=O)(=O)NCc3ccc4c(c3)OCO4)cc2c1=O` registered a z-score of -7.
